Laboratory results published in publication PMC6919601, “Identification of Plasmodium dipeptidyl aminopeptidase allosteric inhibitors by high throughput screening” (PLoS ONE, 2019).
Among all 110,000 compounds or so, about 230 (0.21%) showed an effect of 50% or more. The list shows a part of the results.

Molecular target: DPAP1 (Plasmodium falciparum, UniProt Q8IIJ9)
Assay: primary screen, percent inhibition; read by cleavage of a fluorogenic dipeptide substrate; higher = more effect of the substance
Design: species or system P. falciparum D10 trophozoite lysates; single well
Description: HTS was performed in black 384-well plates. The first and last two columns of each plate contained our negative (DMSO) and positive (10 μM JCP410) controls, and the 20 central columns the test compounds at 10 μM. Compounds were first diluted 50-fold into assay buffer (50 mM sodium acetate, 5 mM MgCl2, 10 mM β-mercaptoethanol, and 0.1% CHAPS, pH 5.5) from a 10 mM DMSO stock plates. One microliter of this 200 μM intermediate stock plate was dispensed into the assay plate. […] After 30 min, the reaction was quenched with 20 μL of 0.5 M acetic acid, and the fluorescent intensity measured at 523 nm (λex = 492 nm) using an Analyst HT multimode plate reader (Molecular Devices).
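Further: 30 min substrate incubation versus DMSO and 10 µM JCP410 controls.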

Chain of DPAP1 (Q8IIJ9 whole entry, looked up): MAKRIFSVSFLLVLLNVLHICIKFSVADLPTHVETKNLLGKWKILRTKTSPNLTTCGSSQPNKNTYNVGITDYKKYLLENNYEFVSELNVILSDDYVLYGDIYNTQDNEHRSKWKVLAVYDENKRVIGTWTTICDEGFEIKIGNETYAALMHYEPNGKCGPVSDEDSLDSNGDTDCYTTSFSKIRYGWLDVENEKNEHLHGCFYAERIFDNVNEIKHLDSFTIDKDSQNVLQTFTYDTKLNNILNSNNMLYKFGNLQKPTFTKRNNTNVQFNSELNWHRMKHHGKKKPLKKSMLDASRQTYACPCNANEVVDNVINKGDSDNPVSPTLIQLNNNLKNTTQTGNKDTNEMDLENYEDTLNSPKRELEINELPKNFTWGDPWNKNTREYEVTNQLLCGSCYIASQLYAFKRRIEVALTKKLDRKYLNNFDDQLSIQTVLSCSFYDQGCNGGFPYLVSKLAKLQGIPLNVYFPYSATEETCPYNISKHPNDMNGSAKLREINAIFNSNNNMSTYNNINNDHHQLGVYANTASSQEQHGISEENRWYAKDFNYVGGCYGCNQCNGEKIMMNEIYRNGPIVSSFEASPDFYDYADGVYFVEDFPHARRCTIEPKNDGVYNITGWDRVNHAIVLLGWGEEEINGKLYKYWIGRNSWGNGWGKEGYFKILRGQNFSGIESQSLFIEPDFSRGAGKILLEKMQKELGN

SMILES	% Inhibition @ 10 uM
COC(=O)c1ccc(OCC(=O)Nc2ccsc2C(=O)OC)cc1	35%
COc1ccc(OC)c(NC(=O)CN(c2ccc(Cl)cc2)S(C)(=O)=O)c1	-1.43%
Cc1ccc2onc(CC(=O)NC3CCCCC3)c2c1	2.89%
CN1CCc2nc3sc(C(=O)C(C)(C)C)c(N)c3c(-c3cccs3)c2C1	3.05%
CCc1ccc(S(=O)(=O)c2nnn3c2nc(N(C)Cc2ccccc2)c2sccc23)cc1	-3.44%
CC1CCCC(NC(=O)c2cc3sc(Cl)cc3n2C)C1C (centres unmarked)	-6.91%
Cc1ccccc1-c1nnc(CN2CCC(C)CC2)o1	-0.0709%
O=C(NCc1ccccc1)c1cc([N+](=O)[O-])ccc1Cl	1.91%
COc1ccc(C(=O)Nc2sc(C)c(C)c2C(N)=O)c(OC)c1	-3.24%
O=C1CCSc2c1cccc2C(=O)NCCCN1CCOCC1	-0.205%
Cc1ccccc1C1CC(=O)Nc2c1c(C)nn2-c1nc2ccccc2s1 (centres unmarked)	5.39%
CCc1cccc(CC)c1NC(=O)C(C)NS(=O)(=O)c1ccc(Cl)cc1 (centres unmarked)	1.17%
O=C(Nc1cnc2ccccc2c1O)N1CCC(Cc2ccccc2)CC1	5.43%
CC1=C(C(=O)N2CCCCC2)C(c2cc(Br)ccc2F)C2=C(O)CC(C)(C)CC2=N1 (centres unmarked)	-5.05%
Cc1cc(S(=O)(=O)c2cc3cc(F)cc(F)c3oc2=O)ccc1F	2.12%
O=C(c1ccc(Cl)s1)N1CCc2ccccc21	3.15%
CC(C)(C)c1ccccc1OCC(=O)NCCc1nc2ccccc2[nH]1	5.09%
O=C(CS(=O)(=O)c1ccc(Cl)cc1)c1cc2cc(Cl)ccc2oc1=O	-6.08%
O=C(c1cc(-c2ccccc2F)no1)N1CCOCC1	1.92%
COCc1cc(C)nc2sc(C(=O)c3ccccc3)c(NC(=O)c3ccccc3)c12	-6.58%
CC(NC(=O)C(c1ccccc1)c1ccccc1)C1COc2ccccc2O1 (centres unmarked)	-6.65%
c1ccc(CN2CCC(N3CCCCC3)CC2)cc1	1.88%

SMILES	% Inhibition @ 10 uM
C=C(C)CC(Nc1ccccc1F)c1ccco1 (centres unmarked)	1.37%
CC1CCC(NCCN2CCCCC2)CC1 (centres unmarked)	-5.44%
COCCNC(=O)Cn1cnc2c(nc3n2CCCCC3)c1=O	-0.238%
CC(=O)c1nn(-c2ccccc2)cc1C(=O)c1cccc(Br)c1	4.81%
CC1=CC2=NC(=O)/C(=C/c3coc4ccccc4c3=O)C(=N)N2O1	1.15%
COc1ccc(CNC(=O)c2ccnn2C)cc1	-1.88%
COc1ccc(OC)c(C2CC(=O)N=C(NC(=O)c3cccc(F)c3)N2)c1 (centres unmarked)	-0.759%
Cc1ccc(/C=C2\C(=N)N3N=C(N4CCOCC4)SC3=NC2=O)o1	0.0579%
Cc1ccc(-n2c(Cc3cccn3C)nnc2SCC(=O)NCc2ccccc2)cc1	-2.19%
CCN(CC)C(=O)CN(c1ccc(Cl)c(Cl)c1)S(=O)(=O)c1ccccc1	-2.8%
COc1cccc(CN2CCN(c3cccc(C(F)(F)F)c3)CC2)c1	-3.65%
CCn1ncc(C2C(C#N)=C(N)Oc3[nH]nc(C)c32)c1C (centres unmarked)	-3.19%
CC1(c2ccc3noc(-c4ccc(Cl)cc4)c3c2)OCCO1	3.81%
O=S(=O)(c1ccc(Br)cc1)c1cccc(S(=O)(=O)N2CCCC2)c1	3.53%
O=C(c1ccccc1)N1CN(C2CCCCC2)Cc2c1sc1c2CCCC1	-0.446%
CCc1ccc(C2=CC(c3cccc(OC)c3)n3nnnc3N2)cc1 (centres unmarked)	4.86%
Cc1ccc(C(=O)C2=C(O)C(=O)N(Cc3cccnc3)C2c2cccnc2)cc1 (centres unmarked)	2.17%
CCC(C)(C)C1CCc2c(sc(NC(=O)C(C)(C)C)c2C(N)=O)C1 (centres unmarked)	0.605%
CC1CC(C)CN(C2CC(=O)N(c3ccccc3)C2=O)C1 (centres unmarked)	-4.4%
O=C(COc1nsnc1N1CCOCC1)NCc1ccc(F)cc1	-0.222%
Cn1c(=O)[nH]c(=O)c2c1nc(NC1CCCCC1)n2CC(O)COc1ccc(Cl)cc1 (centres unmarked)	0.924%
CCOC(=O)c1c(NC(=O)C(F)(OC)C(F)(F)F)sc(-c2ccccc2)c1C (centres unmarked)	2.18%

SMILES	% Inhibition @ 10 uM
N=C(NOC(=O)C(F)(F)F)c1nonc1NC(=O)C(F)(F)F	-1.82%
O=C(Nc1cc(Cl)c(Cl)cc1Cl)c1ccc(Cl)cc1	-3.94%
Cc1ccc(C(=O)Nc2ccccc2O)cc1N1C(=O)c2ccccc2C1=O	-6.81%
COc1ccc(NCc2ccc(Cl)cc2Cl)cc1OC	2.94%
CN1CCN(c2nc(-c3ccccc3)cc(C(F)(F)F)n2)CC1	-0.503%
Nc1cc(C(=O)O)cc2c1Sc1ccccc1O2	-12.6%
COc1ccc2c(C)c(C(=O)O)oc2c1OC	-4.61%
COc1ccc2c3c(c[n+](C)c2c1)sc1ccc(F)cc13	-1.64%
Cc1nc2c(c(C)nn2C(C)(C)C)c(C)c1CCC(=O)NC(C)c1ccc2c(c1)OCCO2 (centres unmarked)	-4.24%
O=C(CSc1nnc(COc2ccccc2Cl)o1)Nc1nc(-c2ccccc2)cs1	4.18%
CC(Oc1cccc(Cl)c1)C(=O)Nc1ccc(S(N)(=O)=O)cc1 (centres unmarked)	0.147%
CC(C)N1C(C)CC(O)N1C(=O)c1ccncc1 (centres unmarked)	-4.98%
CC1(C)CC(=O)c2cnn(-c3ccc(C(F)(F)F)cc3)c2C1	-2.63%
COc1ccc(C2Nc3ccccc3C(=O)N2Cc2ccccc2)c(O)c1 (centres unmarked)	0.431%
O=C(Nc1ccccc1Br)c1ccco1	-1.86%
O=C(NCCCN1CCOCC1)C1c2ccccc2Oc2ccccc21	0.222%
Cc1c(C(=O)NCc2cccnc2)oc2ccc(S(=O)(=O)N3CCCCCC3)cc12	0.287%
COc1ccc(C(=O)N2CCN(c3ccc(F)cc3)CC2)c(OC)c1	-3.39%
COc1ccccc1CNC(=O)CSc1nc(-c2ccco2)cc(C(F)(F)F)n1	0.778%
COc1cccc(CN2CCN(Cc3ccc(C)cc3)CC2)c1OC	-8.37%
c1ccc(CC2=NCCn3cccc32)cc1	-1.82%
